Hit rate of the full screen: of about 310,000 compounds, about 18,000 (5.8%) were called active. Inconclusive results, whose numbers are uncertain, are shown with a selection of clear calls. The call rests on the fitted dose curve; in most records, active means well fitted inhibition curve with a large enough effect; inconclusive means small, poorly fitted or top-dose-only effect, or another doubt; inactive means no such curve, though single readings can be large or run the other way. No potency is given beside an inconclusive call; the fits are too rough.
Experiment: Primary qHTS for delayed death inhibitors of the malarial parasite plastid, 48 hour incubation
Details: P. falciparum luciferase growth in erythrocytes; series mostly up to 28.7 µM
Procedure, shortened: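 In quantitative HTS format, infected erythrocytes bearing luciferase-reporter parasites were treated for a single generation at 37 C. Luminescence after adding detection reagent served as the growth measure.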
Potency means the concentration at half of the fitted maximal effect; tags describe the fitted curve by direction and shape.

For `CN1CCN(c2ccc(S(=O)(=O)N3CCCCC3)cc2NC(=O)Cc2ccc(Cl)cc2)CC1`, which Potency is on record?
The Potency was inconclusive [inhibitor, partial curve, poor fit].

With `CCOC(=O)C1(Cc2cccc(Cl)c2)CCCN(C(=O)c2cccc(C)n2)C1` (centres undefined) as the compound, how does the Potency read?
The Potency was inconclusive [inhibitor, partial curve, poor fit].

With `COc1ccc(CNC(=O)CN2C(=O)C3CCCN3c3ncc(Cl)cc32)cc1` (centres undefined) as the compound, how does the Potency read?
The Potency was inconclusive [inhibitor, single point].

With `Cc1ccc2nc(N(CCCN(C)C)C(=O)c3ccc(S(=O)(=O)N4CCCCCC4)cc3)sc2c1` as the compound, how does the Potency read?
Its Potency is active: 13.1 µM.

Which Potency does the source give for `Cc1cc(NC(=O)COC(=O)C2COc3ccccc3O2)no1` (centres undefined) here?
Its Potency is “inactive”.

With `Cc1nc2ncnn2c(N2CCN(C(=O)c3cccc(F)c3)CC2)c1Cc1ccccc1` as the compound, how does the Potency read?
Its Potency is inconclusive [inhibitor, partial curve].

With `CCCC12CN(C(=O)c3ccco3)CC(CCC)(CN(C(=O)c3ccco3)C1)C2=O` as the compound, how does the Potency read?
Its Potency is inconclusive [inhibitor, partial curve, poor fit].

For `COc1ccc2nc(SC(C)C(=O)NC3CCCC3)[nH]c2c1` (centres undefined), which Potency is on record?
The Potency was inconclusive [inhibitor, single point].

With `O=S(=O)([N-]c1nc2ccccc2nc1-[n+]1ccc(Cc2ccccc2)cc1)c1ccc(Br)s1` as the compound, how does the Potency read?
The Potency was inconclusive [inhibitor, partial curve, poor fit].

For `CC(=O)C(N=Nc1ccccc1)(Sc1nnc(-c2ccccc2)n1-c1ccccc1)C(C)=O`, which Potency is on record?
The Potency was inconclusive [inhibitor, partial curve].

With `COC(=O)c1c(NC(=O)CN2C(=O)NC3(CCC(C)CC3)C2=O)sc2c1CCC2` (centres undefined) as the compound, how does the Potency read?
Its Potency is inconclusive [inhibitor, single point].

With `COc1ccc(N2CCN(C(=O)CS(=O)Cc3nc(-c4ccc(OC)c(OC)c4)oc3C)CC2)cc1` (centres undefined) as the compound, how does the Potency read?
Its Potency is inconclusive [inhibitor, partial curve].

With `COc1cc(NC(=O)CN2CCN(S(=O)(=O)c3ccc(C(C)C)cc3)CC2)cc(OC)c1` as the compound, how does the Potency read?
The Potency was inconclusive [inhibitor, single point].

For `Cc1ccc(-n2cccn2)c(CN2CCCC(C(=O)c3ccc4c(c3)OCO4)C2)c1` (centres undefined), which Potency is on record?
The Potency was inconclusive [inhibitor, partial curve].

With `CCOC(=O)Cc1cnc(NC(=O)CSc2nc(N)cc(=O)[nH]2)s1` as the compound, how does the Potency read?
The Potency was “inactive”.

With `CCn1c(C)nnc1SCC(=O)Nc1ccc(N2CCOCC2)cc1` as the compound, how does the Potency read?
The Potency was “inactive”.

With `Fc1ccc(CNc2ncnc3cc(Cl)ccc23)cc1` as the compound, how does the Potency read?
Its Potency is inconclusive [inhibitor, single point].

With `OCC1(Cc2ccccc2)CCCN(C2CCCC2)C1` (centres undefined) as the compound, how does the Potency read?
Its Potency is inconclusive [inhibitor, partial curve].

With `COc1ccc(C2Oc3ccccc3C3=C2C(c2cccs2)n2ncnc2N3)cc1` (centres undefined) as the compound, how does the Potency read?
Its Potency is active: 8.28 µM.

With `Clc1c(OCCCn2ccnc2)ccc2ccccc12` as the compound, how does the Potency read?
Its Potency is inconclusive [inhibitor, partial curve].

Which Potency does the source give for `O=C(NC1CCN(Cc2ccccc2)CC1)c1cc(-c2ccccn2)nc2ccccc12` here?
The Potency was inconclusive [inhibitor, partial curve, poor fit].

Which Potency does the source give for `COc1cccc(OCc2cc(C(=O)NCc3cnc4ccccn34)no2)c1` here?
Its Potency is inconclusive [inhibitor, single point].

Which Potency does the source give for `Cc1cccc(-n2c(SCC(=O)Nc3nonc3C)nnc2-c2ccoc2C)c1` here?
Its Potency is inconclusive [inhibitor, single point].

With `Cc1ccc(S(=O)(=O)N2CCCCC2)cc1C(=O)OC(C)C(=O)NC1CCCCC1C` (centres undefined) as the compound, how does the Potency read?
The Potency was inconclusive [inhibitor, single point].

Which Potency does the source give for `O=C(CSc1nc2cc(C(F)(F)F)ccc2n1Cc1ccccc1)NC1CCS(=O)(=O)C1` (centres undefined) here?
Its Potency is inconclusive [inhibitor, partial curve].

Which Potency does the source give for `CCCCn1nnnc1SCC(=O)N1CCOCC1` here?
Its Potency is “inactive”.

Which Potency does the source give for `Cn1c(CNC(=O)Cc2ccc3c(c2)OCO3)nnc1SCc1ccccc1` here?
The Potency was “inactive”.

Which Potency does the source give for `CC(=O)c1cccc(NC(=O)C(C)OC(=O)CNC(=O)c2ccc(C)s2)c1` (centres undefined) here?
The Potency was inconclusive [inhibitor, single point].

For `CCOc1ccc2oc(C(=O)N3CCN(c4ccccc4OCC)CC3)c(C)c2c1`, which Potency is on record?
The Potency was inconclusive [inhibitor, single point].

For `COc1ccc(NC(=O)c2ccc(-n3cccn3)c([N+](=O)[O-])c2)cc1`, which Potency is on record?
Its Potency is “inactive”.

With `Cc1ccc(C(CNS(=O)(=O)c2ccc(Cl)cc2)N2CCN(C)CC2)cc1` (centres undefined) as the compound, how does the Potency read?
The Potency was inconclusive [inhibitor, single point].

For `COC(=O)[C@H](CCSC)NC(=O)NCCc1ccccc1F`, which Potency is on record?
The Potency was “inactive”.

With `O=C(/C=C/c1ccco1)Nc1ccccc1N1CCOCC1` as the compound, how does the Potency read?
Its Potency is “inactive”.

Which Potency does the source give for `COc1cccc(C(=O)NNS(=O)(=O)c2ccc(C)cc2)c1` here?
Its Potency is inconclusive [inhibitor, single point].

For `CC(C)c1ccc2[nH]c(O)c(N=NC(=O)c3cccc(S(=O)(=O)Nc4ccc(Cl)cc4)c3)c2c1`, which Potency is on record?
Its Potency is “inactive”.

For `CN(Cc1ccccc1)CC(O)COc1ccc(CNCc2cccnc2)cc1` (centres undefined), which Potency is on record?
Its Potency is active: 9.28 µM.

For `Cc1ccc(OCC(=O)c2ccc(Cl)s2)c([N+](=O)[O-])n1`, which Potency is on record?
The Potency was “inactive”.

For `O=S1(=O)Cc2cc3ccccc3cc2C1`, which Potency is on record?
The Potency was “inactive”.

With `CC(=O)N(C)c1ccc(OCC(O)Cn2c(C)nc3ccccc32)cc1` (centres undefined) as the compound, how does the Potency read?
Its Potency is inconclusive [inhibitor, partial curve, poor fit].

With `O=C(NCC1OCCc2ccccc21)c1ccc(NC(=O)c2ccc(Cl)cc2Cl)cc1` (centres undefined) as the compound, how does the Potency read?
The Potency was inconclusive [inhibitor, partial curve].

For `O=C1Oc2ccccc2C(=O)/C1=C\N1CCN(c2ccccc2)CC1`, which Potency is on record?
The Potency was “inactive”.

For `COc1ccc(S(=O)(=O)N2CCN(C(=O)CCc3c[nH]c4ccccc34)CC2)cc1`, which Potency is on record?
Its Potency is inconclusive [inhibitor, single point].

With `Cc1ccc(O)c(-c2cc(-c3ccccc3F)[nH]n2)c1` as the compound, how does the Potency read?
Its Potency is inconclusive [inhibitor, single point].

Which Potency does the source give for `Cc1nn(-c2ccccc2)c2c1C(c1ccc(O)c(O)c1)N1C(=N2)C(Nc2ccccc2)=Nc2ccccc21` (centres undefined) here?
The Potency was active: 10.4 µM.

With `COC(=O)c1c(NC(=O)COC(=O)[C@@H](NS(=O)(=O)c2cccc(Cl)c2)C(C)C)sc2c1CCC2` as the compound, how does the Potency read?
Its Potency is inconclusive [inhibitor, partial curve].

For `Cc1nnsc1C(=O)N/N=C/c1ccc(OC(F)(F)F)cc1`, which Potency is on record?
The Potency was inconclusive [inhibitor, single point].

Which Potency does the source give for `Clc1ccc(OCC#CCN2CCCC2)cc1` here?
The Potency was “inactive”.

For `c1ccc(Cn2c3ccccc3c3nnc(SCCN4CCCCC4)nc32)cc1`, which Potency is on record?
Its Potency is active: 9.28 µM.

With `Cc1nn(Cc2cccc(F)c2)c(C)c1NC(=O)c1ccc(COc2ccccc2Cl)cc1` as the compound, how does the Potency read?
The Potency was active: 13.1 µM.

Which Potency does the source give for `COc1ccc(C2=NN(C(=O)CSc3nc(=O)n4cccc(C)c4n3)C(c3ccc(C)cc3)C2)cc1` (centres undefined) here?
Its Potency is active: 11.7 µM.

With `Cc1ccc(S(=O)(=O)N(C)C)cc1NC(=O)COC(=O)CCNS(=O)(=O)c1ccccc1` as the compound, how does the Potency read?
Its Potency is inconclusive [inhibitor, partial curve, poor fit].

With `CC(C)(C)NC(=O)CN(CCc1ccccc1)C(=O)c1csnn1` as the compound, how does the Potency read?
The Potency was “inactive”.

Which Potency does the source give for `Cc1ccc(C(=O)NC(=S)Nc2ccc(N3CCOCC3)cc2)cc1` here?
Its Potency is “inactive”.

Which Potency does the source give for `CCN(CC)Cc1nc2sc(C)c(C)c2c(=O)[nH]1` here?
Its Potency is inconclusive [inhibitor, single point].

For `O=C(CSc1nnc(-c2ccco2)n1Cc1ccccc1)c1ccc(F)cc1`, which Potency is on record?
Its Potency is inconclusive [inhibitor, single point].

With `COc1ccc(C(=O)C[n+]2cccc3cc(C)ccc32)cc1` as the compound, how does the Potency read?
Its Potency is active: 14.7 µM.

For `COc1ccc(CCNC(=O)CS(=O)(=O)c2cn(CC(=O)N(C(C)C)C(C)C)c3ccccc23)cc1OC`, which Potency is on record?
The Potency was inconclusive [inhibitor, partial curve].

With `CC(=O)Nc1ccc(NC(=O)COc2c(C)cc(Br)cc2C)cc1` as the compound, how does the Potency read?
The Potency was inconclusive [inhibitor, single point].

Which Potency does the source give for `COc1ccc(-c2csc(NC(=O)C(CC(=O)O)N3CCOCC3)n2)cc1` (centres undefined) here?
Its Potency is active: 1.31 µM.

With `O=S(=O)(NCC(c1ccc2c(c1)OCO2)N1CCOCC1)c1ccc(Br)cc1` (centres undefined) as the compound, how does the Potency read?
The Potency was “inactive”.

Which Potency does the source give for `CCN1CCN(C(=O)c2ccc(CN(c3ccccc3)S(=O)(=O)c3ccccc3)cc2)CC1` here?
Its Potency is inconclusive [inhibitor, single point].

With `CC(=O)Oc1ccc(N2C(=O)C3C4C=CC(O4)C3C2=O)cc1` (centres undefined) as the compound, how does the Potency read?
Its Potency is “inactive”.

For `COC(=O)/C=C1/S/C(=N/NC(=O)c2ccccc2OC)NC1=O`, which Potency is on record?
The Potency was inconclusive [inhibitor, single point].

Which Potency does the source give for `CC(=O)Nc1cccc(NC(=O)c2ccccc2OCc2ccccc2)c1` here?
Its Potency is inconclusive [inhibitor, partial curve, poor fit].

Which Potency does the source give for `COCCNC(=O)c1csc(Nc2cccc3ccccc23)n1` here?
The Potency was inconclusive [inhibitor, partial curve, poor fit].

With `Clc1ccccc1C1=Nn2c(nnc2-c2ccncc2)SC1` as the compound, how does the Potency read?
The Potency was inconclusive [inhibitor, full curve, poor fit].

Which Potency does the source give for `COCC1CCN(C(=O)c2cc(COc3ccc(C)c(C)c3)on2)C1` (centres undefined) here?
The Potency was “inactive”.

For `O=C(CN1CCC(n2nnc3cc(F)ccc32)CC1)NCc1ccco1`, which Potency is on record?
Its Potency is inconclusive [inhibitor, full curve].

With `COc1cc(C)c(COc2ncnc3ccccc23)cc1OC` as the compound, how does the Potency read?
The Potency was inconclusive [inhibitor, single point].

Reference: PubChem BioAssay AID504832 (National Center for Advancing Translational Sciences (NCATS), 2011)
